The campaign covered roughly 310,000 compounds. About 14,000 (4.5%) showed an effect of 50% or more. Effects have a minus sign here. Some of the results follow.
target: human ether-à-go-go-related gene (hERG) potassium channel (human, UniProt Q12809); test: primary screen, population patch clamp on CHO cells stably expressing hERG
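Note: peak tail current of the secondary pulse compared with the same well before compound.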

Sequence of human ether-à-go-go-related gene (hERG) potassium channel (Q12809 whole entry, looked up): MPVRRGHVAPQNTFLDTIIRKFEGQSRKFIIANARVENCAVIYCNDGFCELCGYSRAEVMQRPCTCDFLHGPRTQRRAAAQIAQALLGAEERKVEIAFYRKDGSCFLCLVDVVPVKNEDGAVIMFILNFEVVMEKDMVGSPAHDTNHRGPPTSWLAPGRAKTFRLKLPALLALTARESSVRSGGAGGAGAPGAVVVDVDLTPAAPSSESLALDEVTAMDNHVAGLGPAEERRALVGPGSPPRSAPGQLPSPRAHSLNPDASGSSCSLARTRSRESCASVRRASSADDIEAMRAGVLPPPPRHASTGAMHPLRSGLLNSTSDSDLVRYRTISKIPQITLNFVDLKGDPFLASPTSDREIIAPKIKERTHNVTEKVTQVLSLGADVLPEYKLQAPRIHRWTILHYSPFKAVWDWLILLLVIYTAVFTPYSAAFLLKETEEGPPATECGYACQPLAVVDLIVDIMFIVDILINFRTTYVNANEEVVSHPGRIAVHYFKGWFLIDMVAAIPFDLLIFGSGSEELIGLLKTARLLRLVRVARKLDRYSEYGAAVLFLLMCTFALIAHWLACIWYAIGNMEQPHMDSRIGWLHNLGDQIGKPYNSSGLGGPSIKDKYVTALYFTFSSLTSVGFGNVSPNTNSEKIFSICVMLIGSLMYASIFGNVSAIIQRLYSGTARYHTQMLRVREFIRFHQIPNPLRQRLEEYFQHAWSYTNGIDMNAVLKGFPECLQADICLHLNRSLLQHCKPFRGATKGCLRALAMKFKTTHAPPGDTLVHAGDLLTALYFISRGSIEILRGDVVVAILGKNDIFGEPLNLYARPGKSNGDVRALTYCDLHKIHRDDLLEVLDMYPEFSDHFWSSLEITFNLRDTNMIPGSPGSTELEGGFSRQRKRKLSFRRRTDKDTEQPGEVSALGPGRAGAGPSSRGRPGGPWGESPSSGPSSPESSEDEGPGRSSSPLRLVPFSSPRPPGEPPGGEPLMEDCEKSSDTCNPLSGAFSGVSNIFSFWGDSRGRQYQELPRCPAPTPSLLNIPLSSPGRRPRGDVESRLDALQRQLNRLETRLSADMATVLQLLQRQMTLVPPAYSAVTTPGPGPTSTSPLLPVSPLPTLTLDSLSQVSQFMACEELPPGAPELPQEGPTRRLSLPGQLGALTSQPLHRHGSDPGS

Row | Compound | hERG current change (%, negative = inhibition) at 10uM [%]
1 | CC(=O)c1c(-c2ccc(Cl)cc2)c2ccccc2[nH]c1=O | 11
2 | O=C(COC(=O)c1ccc(S(=O)(=O)Nc2ccccc2)cc1)NC1CCCC1 | 5.84
3 | Cc1ccccc1NC(=O)Nc1cccs1 | 13.3
4 | O=C(NCc1ccccn1)c1cc(S(=O)(=O)N2CCN(c3ccccc3)CC2)ccc1Cl | -32.4
5 | C=CCN1C(=O)/C(=C2/Sc3ccccc3N2C)SC1=Nc1ccccc1C | 14.6
6 | CSc1cccc(NS(=O)(=O)c2ccc3c(c2)oc(=O)n3C)c1 | -4.71
7 | CCOC(=O)CC(=O)CSc1nc2c(c(C)c1C#N)CCC2 | -9.57
8 | COc1ccc(NC(=O)c2ccccn2)cc1 | 11.2
9 | COc1ccc(N(C(=O)c2ccc(C)cc2)S(=O)(=O)c2cccs2)cc1 | 2.84
10 | O=C(COC(=O)c1ccccc1NCCO)Nc1cccc(S(=O)(=O)NC2=NCCCCC2)c1 | -9.92
11 | Cc1ccc(N(CCC#N)C(=O)CSc2nc3ccccc3c(=O)[nH]2)cc1 | -10.8
12 | CCC(=O)Nc1cccc(NC(=S)NC(=O)Cc2ccccc2)c1 | 21.1
13 | CCc1ccc(NC(=O)CSc2nnc(-c3ccccn3)n2C)cc1 | -21
14 | COC(=S)N/C(=N\S(=O)(=O)c1ccc(Cl)cc1)c1ccccc1 | 10.3
15 | CN1CCN(c2cnn(-c3ccccc3)c(=O)c2Br)CC1 | -0.56
16 | COC(=O)Cc1ccc(NC(=S)NCCC(C)C)cc1 | -3.53
17 | CCOc1ccc(NC(=O)c2cc(SC)ccc2Cl)cc1 | 4.32
18 | C=CCOc1ccc(/C=N/NC(=O)c2c(C)nc3ccc(Cl)cn23)cc1 | 16
19 | CCC(C)c1ccc(NC(=O)N2CCOCC2)cc1 (centres unmarked) | 6.59
20 | CCOC(=O)Cn1cc(/C=C(/C#N)C(=O)NC(C)C)c2ccccc21 | 8.22
21 | Cc1noc(NS(=O)(=O)c2ccc(N/C=C\C(=O)c3ccc4c(c3)OCO4)cc2)c1C | 4.93
22 | COc1ccc(/C=C2\Sc3ccc(C(=O)N4CCCC4)cc3N(C)C2=O)cc1OC | 11.5
23 | Cc1cc(Cl)ccc1OCC(=O)OCC(=O)NC1CCCC1 | 17.1

Row | Compound | hERG current change (%, negative = inhibition) at 10uM [%]
24 | CC(=O)c1cccc(NC(=O)N2CCCC2C(=O)Nc2cc(C)ccc2C)c1 (centres unmarked) | -10.8
25 | OCC1(C2=NOC(O)(C(F)(F)F)C2)CCCCC1 (centres unmarked) | 11.1
26 | COc1ccc(NC(=O)c2sc(=S)[nH]c2N)cc1 | 21.1
27 | Cc1nnc(N2CCCC(C(=O)NCc3ccc(OC(C)C)cc3)C2)c2nn(-c3ccccc3)c(C)c12 (centres unmarked) | -9.05
28 | COc1ccc(-c2noc(=O)n2CC(=O)N2CCC(Cc3ccccc3)CC2)cc1 | -21
29 | CC(=O)c1ccc(S(=O)(=O)N2CCC(Oc3ccc(-n4cnnn4)cc3)CC2)cc1 | 21.9
30 | COc1ccc(C2(C(=O)Nc3ccc(C)c(C)c3)CCOCC2)cc1 | 6.97
31 | COc1ccc(C2(C)NC(=O)N(CC(=O)Nc3ccc4[nH]c(=O)[nH]c4c3)C2=O)cc1 (centres unmarked) | 17.7
32 | O=c1[nH]cnc2c1C(c1ccc(Cl)cc1)c1c(nc[nH]c1=O)O2 | 1.91
33 | Cc1c(NC(=O)C(C)OC(=O)COc2cccc3c2OC(C)(C)C3)c(=O)n(-c2ccccc2)n1C (centres unmarked) | 9.83
34 | O=C(COC(=O)c1cc2c(s1)CCCC2)NCc1ccccc1Cl | 1.44
35 | Clc1ccc(Nc2nc3ccccc3n3nnnc23)cc1 | 7.76
36 | O=C(NCCc1ccccc1)c1ccc2nc(N3CCOCC3)sc2c1 | 3.75
37 | CSc1ccc(/C=C(/NC(=O)c2ccco2)C(=O)N2CCCCC2)cc1 | -27.9
38 | NC(=O)c1ccccc1NC(=O)COc1ccc(Cl)cc1 | -0.944
39 | Br.Nc1nc(-c2ccccc2)c(N=Nc2ccc(Cl)cc2)s1 | 7.86
40 | CCOC(=O)C1CCN(C(=O)c2cccc(NC(=O)C(CC)CC)c2)CC1 | -0.115
41 | OC(CNCCC(c1ccccc1)c1ccccc1)COc1ccccc1 (centres unmarked) | -71.4
42 | C[N+]12CN3CN(CN(C3)C1)C2.[I-] | 15.1
43 | Cc1ccccc1OCC(=O)OC(C(=O)c1ccccc1)c1ccccc1 (centres unmarked) | 15.3
44 | O=C1N2c3ccccc3CCc3cccc(c32)C1(O)C(F)(F)F (centres unmarked) | -32.8
45 | COc1ccc(CNC(=O)c2ccc(CNc3c(NC4CCCCC4)c(=O)c3=O)cc2)cc1 | 12.7
46 | CCCCCCn1c(CN2CCN(C(=O)c3ccco3)CC2)nc2c1c(=O)n(C)c(=O)n2C | -65.8

Row | Compound | hERG current change (%, negative = inhibition) at 10uM [%]
47 | COc1ccc(-c2cnc3ncnn3c2N)cc1 | 11.6
48 | Cn1c(CCNS(=O)(=O)c2ccc(F)cc2)nnc1SCc1cccnc1 | 17.8
49 | c1ccc2cc(Sc3ncnc4c3oc3ccccc34)ccc2c1 | 22
50 | O=C(Nc1cccc(NC(=O)c2ccco2)c1)c1cccc(Br)c1 | -30.6
51 | O=C(Cc1ccc(F)cc1)NC(Cc1c[nH]c2ccccc12)C(=O)O (centres unmarked) | 24.7
52 | Cc1cccc(NC(=O)CN2CCN(C(=O)c3cccc(-n4cnnn4)c3)CC2)c1C | -41.5
53 | CCOc1cc(NC(=O)c2cccs2)c(OCC)cc1NC(=O)c1cccnc1 | 21.1
54 | CNC(=O)c1ccc(-c2ccc(F)cc2)s1 | 4.34
55 | NC(=O)c1ccc(-c2ccc(Br)cc2)o1 | 0.329
56 | C/C(O)=C/c1nc2ccccc2[nH]c1=O | -5.26
57 | CSc1ccccc1C(=O)N1CCOCC1 | 20
58 | CN(C)c1nc(N)nc(CSc2nnnn2-c2ccccc2)n1 | -6.81
59 | CN(Cc1ccccc1)C(=O)COC(=O)c1ccc2ccccc2n1 | -4.26
60 | CCCCCC(=O)N1CCN(CCN=CC2=C(O)CC(c3ccco3)CC2=O)CC1 (centres unmarked) | -76.2
61 | Cc1ccc(C)c(NC(=O)c2cc(-c3cc(C)ccc3O)n[nH]2)c1 | 20.9
62 | CCC(C)c1ccccc1NC(=O)C(C)N(C)Cc1cccc(OC)c1.O=C(O)C(=O)O (centres unmarked) | 11.8
63 | COc1ccc(Nc2c3c(c(C#N)c4nc5ccccc5n24)CCC3)cc1 | 2.54
64 | C/C(=C1/SC(N2CCOCC2)=NC1=O)c1ccc(Cl)cc1 | 5.5
65 | COc1ccc(C(=O)NNC(=S)NC(=O)c2cccs2)cc1 | 10.8
66 | CCc1nnc(NC(=O)CSc2nc3cc4c(cc3cc2C)OCCO4)s1 | 4.52
67 | COc1ccc(Nc2nc(-c3cccs3)cs2)cc1 | 21.2
68 | Cc1oc(-c2ccccc2)nc1CN1C(=O)CN=C(c2ccccc2)c2ccccc21 | -32.8
69 | OC1CCN(Cc2nc(Cc3ccccc3Cl)no2)CC1 | 13.3

Row | Compound | hERG current change (%, negative = inhibition) at 10uM [%]
70 | CCN(Cc1ccccc1)C(c1cccc(C#N)c1)c1nnnn1C(C)(C)C (centres unmarked) | -6.6
71 | O=C(CN1CCc2cc3c(cc2C1)OCCCO3)Nc1cccc(Br)c1 | 8.67
72 | O=C(Cn1c(=O)oc2cc(S(=O)(=O)NCc3ccccc3)ccc21)N1CCCC1 | 15.2
73 | CN(C)c1nc(C(N)=O)nc(N2CCOCC2)n1 | 2.5
74 | O=C(Cc1cc(=O)[nH][nH]1)N/N=C/c1c(F)cccc1Cl | 12.1
75 | COc1ccc(C)cc1S(=O)(=O)N(CC(=O)Nc1cccc([N+](=O)[O-])c1)c1cc(C)cc(C)c1 | 11.1
76 | CC(C)[C@H](NC(=O)c1ccccc1)C(=O)NCCc1ccccc1 | -32.4
77 | CSc1cccc(NC(=O)CCCOc2ccc(Cl)cc2C)c1 | -2.48
78 | Cc1ccnc(NC(=O)CCC(=O)N(CC(=O)NCc2ccccc2)Cc2ccccc2)c1 | -16.7
79 | COc1cccc(F)c1C(C[N+](=O)[O-])c1c(N)n(C)c(=O)n(C)c1=O (centres unmarked) | -0.833
80 | CNC(=S)N/N=C/c1ccc2c(c1)OCCO2 | 22.6
81 | Cc1noc(C)c1CSCC(=O)N1CCN(c2ccc([N+](=O)[O-])cc2)CC1 | -76.8
82 | O=C(NCC1CCN(Cc2ccc(Cl)cc2)CC1)C1CCCN(c2ncnc3c2nc2n3CCCCC2)C1 (centres unmarked) | -65.7
83 | CCN(CC)S(=O)(=O)c1ccc(N/N=C/c2ccc(O)cc2)nc1 | -12.9
84 | CCOC(=O)N1CCC(NC(=O)CCC(=O)N2CC(C)Oc3ccc(Cl)cc32)CC1 (centres unmarked) | -3.99
85 | CCCc1cc(=O)[nH]c(/N=C(/NC(=O)c2ccccc2)Nc2ccc3c(c2)OCCO3)n1 | 10.1
86 | Cc1cc(NC(=O)COC(=O)C2=COCCO2)c([N+](=O)[O-])cc1C | 14.9
87 | CCc1ccc(NC(=O)NCCN2CCN(c3ccc(OC)cc3)CC2)cc1 | -14.1
88 | O=C(c1cc(S(=O)(=O)N2CCOCC2)c(Cl)cc1Cl)N1CCCCC1 | -3.46
89 | Cl.O=C(c1ccco1)N1CCN(C(c2ccccc2Cl)c2nnnn2CC2CCCO2)CC1 (centres unmarked) | -12.3

From article PMC4336329 (PLoS ONE, 2015)
